How the values were obtained:
MM.1S = test: ADC cytotoxicity, Cell Titer Glo, 96 hours; assay type: cell-based; details: MM.1S (14800 NTB-A receptors/cell)
Experimental: (§1) Humanized antibodies (HDLD) were tested as PBD and auristatin antibody drug conjugates. The antimitotic agent monomethyl auristatin E (MMAE) was conjugated to anti-NTB-A mAbs via a cathepsin-cleavable valine-citrulline (vc) linker. A second auristatin, Auristatin-2 was conjugated to anti-NTB-A mAbs via a peptide linker. For the PBD conjugates, the drug-linker SGD-1910 was conjugated to the anti-NTBA antibody via a thiol group of a cysteine residue introduced at position 239 of the IgG1 chain of the antibody (numbering according to the EU Index) and the average drug load was about 2 drugs per antibody. Antibodies with cysteine at the 239 position carry the designation ec. Preparation was as described in WO2011/130613 using the anti-NTBA antibodies described herein. The ADCs were serially diluted 3-fold in media to produce a 10 point dose curve (1,000 ng/mL-0.05081 ng/mL) and applied to multiple myeloma cells cultured in 96-well assay plates. The cell lines were treated with anti-NTB-A ADCs in quadruplicate and incubated for 96 hours at 37° C., 5% CO2. Cells were assayed for viability using the Cell Titer Glo luminescent cytotoxicity assay (Promega), and data collected using an EnVision plate reader (Perkin Elmer). Dose effect curves and IC50 values were calculated using GraphPad Prism software.

U-266 = test: ADC cytotoxicity, Cell Titer Glo, 96 hours; assay type: cell-based; details: U-266 (18300 NTB-A receptors/cell)
Experimental: as §1

EJM cells = test: Disseminated multiple myeloma xenograft, EJM in NSG mice; assay type: in vivo; details: 333 μg/kg (single dose), intraperitoneal; n=10
Experimental: (§2) NSG (NOD scid gamma; NOD.Cg-Prkdc^scid Il2rg^tm1Wjl/SzJ) mice were implanted with 10 million EJM cells per animal intravenously to generate a disseminated model of multiple myeloma. Five days after tumor cell implant, n=10 mice per treatment group were given a single intraperitoneal injection of h20F3ec-1910(2) PBD ADC or non-binding control hIgGec-1910(2) PBD ADC. PBD ADC dose levels examined were 333 μg/kg, 111 Ig/kg, and 37 μg/kg. Mice with advanced tumor burden were sacrificed upon showing symptoms of hind limb paralysis, cranial swelling, and/or moribundity.
as §2, with “either anti-NTB-A ADCs h20F3-vcMMAE(4), h20F3-Auristatin2(8),” for “h20F3ec-1910(2) PBD ADC”, “ADCs hIgG-vcMMAE(4) and hIgG-Auristatin2(8).” for “hIgGec-1910(2) PBD ADC. PBD”, “3.0 mg/kg,” for “333 μg/kg, 111 Ig/kg,”, “1.0 mg/kg.” for “37 μg/kg.”, “moribundity. […] The h20F3-Auristatin2(8) ADC produced 2/10 or 9/10 durable complete responses at the 1.0 mg/kg and 3.0 mg/kg dose levels, respectively.” for “moribundity.”

MM.1R cells = test: ADC internalization, flow cytometry; assay type: cell-based
Experimental: Multiple myeloma cell lines (MM.1R or U-266) were bound with saturating concentrations of ADC (10 μg/mL), washed with media, and incubated at either 37° C. or 4° C. Time points were collected at which samples were stained with PE-labeled goat-anti-human antibody (Jackson ImmunoResearch, West Grove, Pa.) and fixed in 1% PFA/PBS. Once all time points were collected, the mean fluorescence intensity was measured on the FACs Calibur flow cytometer (BD BioSciences, San Jose, Calif.). The anti-NTB-A h20F3ec-1910(2) PBD dimer ADC rapidly internalized into MM.1R cells, with 80% of the ADC internalized within 4 hours at 37-C incubation. Only 20% of h20F3ec-1910(2) ADC was internalized at 4 hours when cells were kept at 4-C control condition.

[1] = tested on: WSU-DLCL2 non-Hodgkin lymphoma cells; test: Subcutaneous non-Hodgkin lymphoma xenograft, WSU-DLCL2 in SCID mice; assay type: in vivo; details: n=8
Experimental: SCID (C.B-17/Sz-Prkdc^scid) mice were implanted with 5 million WSU-DLCL2 non-Hodgkin lymphoma cells per animal subcutaneously. When mean tumor volume reached 100 mm^3, n=8 mice per treatment group were given a single intraperitoneal injection of h20F3ec-1910(2) PBD ADC or control hIgGec-1910(2) PBD ADC. PBD ADC dose levels examined were 100 ug/kg, 50 ug/kg, and 25 ug/kg. Individual mice were sacrificed when subcutaneous WSU-DLCL2 tumor volume reached 1,000 mm^3.

[2] = tested on: HNT-34 acute myeloid leukemia cells; test: Subcutaneous AML xenograft, HNT-34 in SCID mice; assay type: in vivo; details: 37 μg/kg single ip dose; n=10
Experimental: SCID (C.B-17/Sz-Prkdc^scid) mice were implanted with 5 million HNT-34 acute myeloid leukemia cells per animal subcutaneously. When mean tumor volume reached 100 mm^3, n=10 mice per treatment group were given a single intraperitoneal injection of h20F3ec-1910(2) PBD ADC or non-binding control hIgGec-1910(2) PBD ADC. PBD ADC dose levels examined were 333 μg/kg, 111 Ig/kg, and 37 μg/kg. Individual mice were sacrificed when subcutaneous HNT-34 tumor volume reached 1,000 mm^3. […] The hIgGec-1910(2) control PBD ADC produced 0/10 complete responses at 333 g/kg.
SCID (C.B-17/Sz-Prkdc^scid) mice were implanted with 5 million HNT-34 acute myeloid leukemia cells per animal subcutaneously. When mean tumor volume reached 100 mm^3, n=10 mice per treatment group were given a single intraperitoneal injection of either anti-NTB-A ADCs h20F3-vcMMAE(4), h20F3-Auristatin2(8), or non-binding control ADCs hIgG-vcMMAE(4) and hIgG-Auristatin2(8). ADC dose levels examined were 3.0 mg/kg, and 1.0 mg/kg. Individual mice were sacrificed when subcutaneous HNT-34 tumor volume reached 1,000 mm^3. […] The h20F3-vcMMAE(4) ADC produced durable complete responses in 4/10 or 9/10 mice at 1.0 mg/kg or 3.0 mg/kg dose levels, respectively. The h20F3-Auristatin2(8) ADC produced 3/10 or 9/10 durable complete responses at 1.0 mg/kg or 3.0 mg/kg dose levels, respectively.

B1: h20F3ec-1910(2) (conjugate)
heavy: QIQLVQSGSELKKPGASVKVSCKASGYTFTNYGMNWVRQAPGQDLKWMGWINTYSGEPRYADDFKGRFVFSLDKSVNTAYLQISSLKAEDTAVYYCARDYGRWYFDVWGQGTTVTVSS[sequence of human IgG1 constant region with changes omitted]
light: QIVLSQSPATLSLSPGERATMSCRASSSVSHMHWYQQKPGQAPRPWIYATSNLASGVPARFSGSGSGTDYTLTISSLEPEDFAVYYCQQWSSTPRTFGGGTKVEIKRTVAAPSVFIFPPSDEQLKSGTASVVCLLNNFYPREAKVQWKVDNALQSGNSQESVTEQDSKDSTYSLSSTLTLSKADYEKHKVYACEVTHQGLSSPVTKSFNRGEC
IC50 (MM.1S): 1 ng/mL | IC50 (U-266): 8 ng/mL | durable complete responses (EJM cells): 8/10 | ADC internalized (MM.1R cells; at 4 hours, cells kept at 4 C control condition): 20% | ADC internalized (MM.1R cells; within 4 hours at 37 C, 10 μg/mL ADC): 80% | tumor growth delay relative to untreated mice ([1]; 25 ug/kg and 50 ug/kg single ip dose): measurable tumor growth delays | durable complete responses ([1]; 100 ug/kg single ip dose): 2/8 | durable complete responses [2]: 2/10 | tumor delay [2]: strong tumor delay

Reference: patent US20230218776A1, “ANTI-NTB-A ANTIBODIES AND RELATED COMPOSITIONS AND METHODS” (SEAGEN INC., priority 2015, published 2023)
